Source: article PMC12136788
Some of the results follow.

T1: UNK ZnF1-3 (human, UniProt Q9C0B0 31-174)
T1 sequence: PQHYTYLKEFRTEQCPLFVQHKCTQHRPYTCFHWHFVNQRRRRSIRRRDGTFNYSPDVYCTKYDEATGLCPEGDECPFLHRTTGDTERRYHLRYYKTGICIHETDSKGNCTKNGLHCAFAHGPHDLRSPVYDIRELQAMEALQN

B1: 94664534_94664654_4104_CDS_ENSMUSG00000040785_ENSMUST00000117648|mouse|control|control (ssRNA)
RNA: GGGAGUUCUACAGUCCGACGAUCGCAGAAUCCUGUGACCAAGUGUGAUUGAGCCCAGUAUGUUGGUUUGGCUUCUUCAGGAGCUGGCGUGGGGGAAGGAGAAGCAUCCUCACAGAGUGGUGUAGGAGAGUCAGGAGAGGCCACCAACAGAGGAUUGAGCAUCA
B2: chr10:112764417:112764418:+_ENSG00000108061_ENST00000369452|hu_hu|FALSE|FALSE (ssRNA)
RNA: GGGAGUUCUACAGUCCGACGAUCGAUGGUAGAAAACUGAGAUGGACCACCCACUGGAUACAACUGGAAGCAAUUUCUAGCUAAGGUCAAACUAUUCAGUUUCACAAGACUUGAUAAAAGACUCUCUGGUAAAGUAGAAAUGUUCAACAGAGGAUUGAGCAUCA
B3: chr10:33190432:33190433:-_ENSG00000150093_ENST00000302278|hu_mus|hu_hu_hu_mus_True|98_108 (ssRNA)
RNA: GGGAGUUCUACAGUCCGACGAUCUACAUUUUCAAAACCUGCACAUGAAUAAAACCCUGGCCACAGAGCCCCAAAACUACCCUACUGUGACUAAGAUGCUGCUGCUGUGAGCUUGGUGUUGCAAAAUCCGCCUGAGUAGGAUUCCAACAGAGGAUUGAGCAUCA
B4: chr17:64801638:64801639:+_ENSG00000154229_ENST00000413366|hu_mus|hu_hu_hu_mus_False|78_88 (ssRNA)
RNA: GGGAGUUCUACAGUCCGACGAUCUAUAUAUAUAUAUACAUAUGUACACAUAUGUAGUAAGAGCCUAGUUAAACGUGUAAAGUAGCCAUUCAUUUUUAAAAUUACAUCUACAUUAAAAAAUUAAUAUAUCUGAUAGAGUGCCAGCAACAGAGGAUUGAGCAUCA
B5: chr10:24632779:24632780:+_ENSMUSG00000019984_ENSMUST00000092646|mus_mus|FALSE|FALSE (ssRNA)
RNA: GGGAGUUCUACAGUCCGACGAUCUAGGGAUUUGAAUAAAGUGAUAUGAAUAUGAACAACAUGUAACUUACUUAUCUCUUAGAGACAAAACAUAGACAAGGAGAGGGAUUCAGUAUUUGAAUCAGAAUAAACCAAUCUGAACAUCAACAGAGGAUUGAGCAUCA
B6: chr11:10818680:10818681:-_ENSG00000110321_ENST00000525681|hu_mus|motif|central (ssRNA)
RNA: GGGAGUUCUACAGUCCGACGAUCUAUAUAAAAUCAGGGCAUGAACAUGACUUGAUAAAUUAAGUAGACUUAAUUUCAAUACGGUAAUAAGAGGGACCAAUUCAAAUUCUCACCAUUUGUUUCACACCCACAAAAACCACUUCACAACAGAGGAUUGAGCAUCA
B7: 74654493_74654613_2214_CDS_ENSG00000113161_ENST00000287936|human|control|control (ssRNA)
RNA: GGGAGUUCUACAGUCCGACGAUCAACAGAUUUUCCUCUUCCCUCUAUCCAAUUUAUAGCAGCAGGUUUCUUGUCAGUACAAUAGUUACCACUAACGGCUAGAAUCUGCAUUUCAGGGAAAUACUCGUGAAGUUUUGAAAGUGCCAACAGAGGAUUGAGCAUCA
B8: chr3:151873496:151873497:+_ENSMUSG00000028034_ENSMUST00000166984|mus_mus|motif|central (ssRNA)
RNA: GGGAGUUCUACAGUCCGACGAUCCGCUACAGCACACGCUGCCGUUUCCUCGCGGAGGGAGGCGCCGCUCUCGGUUAACUGCGGAGAAAGGAAGAAGAUGGCGGCCGUCGAGGCUCUAUCACAUUCUUGCACGACCAUCGUGCCCAACAGAGGAUUGAGCAUCA
B9: chr14:78183846:78183847:+_ENSG00000119705_ENST00000557342|hu_hu|hu_hu_hu_mus_False|8_88 (ssRNA)
RNA: GGGAGUUCUACAGUCCGACGAUCUCUCAGAAAUCUUUCUUCAUCAGCAUCAUCAGAUCCGUGCAAAGCCUUUGCUCUUUGAGCUUGAACGUGGAUCUAUGGGAGGGAAAGCACUGUCAGAAAAGGUUGUAGUGCAUUUAAAGACAACAGAGGAUUGAGCAUCA
B10: chr17:45761549:45761550:+_ENSG00000108424_ENST00000290158|hu_mus|motif|central (ssRNA)
RNA: GGGAGUUCUACAGUCCGACGAUCGCUCAGGCAGGGAGGGGAUGAAAGGAGCACGGGAGAAACCUAAGCCAAUACCUUUGACGGCAAUGGAAAUGGAAAUGGGAAUGAGGGUCUUGUGUUUCUUCCACACUACCAGGAAGCAAUCAACAGAGGAUUGAGCAUCA
B11: chr9:53392976:53392977:-_ENSMUSG00000032047_ENSMUST00000034547|mus_mus|FALSE|FALSE (ssRNA)
RNA: GGGAGUUCUACAGUCCGACGAUCUUUCAGUCCUGCAUAUUUAAGAACCUUAGGUACGGCAUAUGCAGGCGCAAGUGGAAAAUCAAUGGGGUCUACGGCAGCAUCAGCAAAUGCUGCAAUUCGUGCCAAUGGCUUAACAUUGAGCAACAGAGGAUUGAGCAUCA
B12: chr1:196632501:196632502:+_ENSMUSG00000026640_ENSMUST00000027952|mus_mus|FALSE|FALSE (ssRNA)
RNA: GGGAGUUCUACAGUCCGACGAUCGACCCGGGACCGGAGGCUGUCUGGGCUGCCUGUGUACCUGAAGGAAGAGUCAUAUCUGCUAAUGGAUGUCCGAGAGAUGCUGGCAGAGGCAGGGAUGUUGUAGGAGGAGGUCUGCUUAGGCAACAGAGGAUUGAGCAUCA
B13: chr2:198351390:198351391:-_ENSG00000144381_ENST00000345042|hu_hu|hu_hu_hu_mus_False|18_18 (ssRNA)
RNA: GGGAGUUCUACAGUCCGACGAUCUCAUUCCCACCCUCCACAGAAAGGCUGCUUCUGAACUCUCAUGUGGUGACACAGCGCUACAGUCCUGAUGCUCACAGAACAGUAGAGAUGCCUCCUCAGUGAUAGUUGAAAGCAGGACACCAACAGAGGAUUGAGCAUCA
B14: 31195606_31195726_1390_CDS_ENSMUSG00000029165_ENSMUST00000031057|mouse|control|control (ssRNA)
RNA: GGGAGUUCUACAGUCCGACGAUCGGUGUCAGGGGCUGGCUCCUCGAGUUCAGGAAUUGGCUGUGGCAUAAGCCACACAGGGUCAGUCUUCUCUUCUGCUGGCUCUGUCUCAGGCCAAGUCGCAGGGUUUUCCCCAUCAGGUGACAACAGAGGAUUGAGCAUCA

The binders below were run against T1, UNK ZnF1-3 (assay: nsRBNS (natural sequence RNA bind-n-seq); RBNS binding buffer (assumed for nsRBNS): 25 mM Tris pH 7.5, 150 mM KCl, 3 mM MgCl2, 0.01% Triton X-100, 500 ug/ml BSA, 20 U/ml SUPERase-In, 4 C; UNK is unkempt and MSI1 is Musashi-1; names of the RNAs are library labels; protein concentration not given here; high values mean tight binding).

| Binder | binding signal |
| --- | --- |
| B1 | 2.12 enrichment R |
| B2 | 1.16 enrichment R |
| B3 | 1.28 enrichment R |
| B4 | 2.24 enrichment R |
| B5 | 0.991 enrichment R |
| B6 | 1.46 enrichment R |
| B7 | 1.08 enrichment R |
| B8 | 0.902 enrichment R |
| B9 | 1.39 enrichment R |
| B10 | 1.52 enrichment R |
| B11 | 0.688 enrichment R |
| B12 | 1.94 enrichment R |
| B13 | 1.18 enrichment R |
| B14 | 0.745 enrichment R |
